Source: PubChem BioAssay AID485294 (National Center for Advancing Translational Sciences (NCATS), 2010)
Screen size: about 370,000 compounds; about 150 (0.041%) were called active. Inconclusive results, whose numbers are uncertain, are shown with a selection of clear calls. The call rests on the fitted dose curve; in most records, active means well fitted inhibition curve with a large enough effect; inconclusive means small, poorly fitted or top-dose-only effect; inactive means flat fitted curve, though single readings scatter. No potency is given beside an inconclusive call; the fits are too rough.

target: Beta-lactamase (Escherichia coli (strain K12)) (UniProt P00811); assay: qHTS Inhibitors of AmpC Beta-Lactamase (assay with detergent); settings: AmpC hydrolysis of nitrocefin, absorbance 480 nm, 0.01% Triton; activity change, negative = inhibition: at 114 µM (top of the series); further: nearly all actives have a fitted effect of over 25% in size;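 on activity change, negative = inhibition: 0% = no-compound wells and -100% = no-enzyme wells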
UniProt P00811, sequence (P00811 whole entry, looked up): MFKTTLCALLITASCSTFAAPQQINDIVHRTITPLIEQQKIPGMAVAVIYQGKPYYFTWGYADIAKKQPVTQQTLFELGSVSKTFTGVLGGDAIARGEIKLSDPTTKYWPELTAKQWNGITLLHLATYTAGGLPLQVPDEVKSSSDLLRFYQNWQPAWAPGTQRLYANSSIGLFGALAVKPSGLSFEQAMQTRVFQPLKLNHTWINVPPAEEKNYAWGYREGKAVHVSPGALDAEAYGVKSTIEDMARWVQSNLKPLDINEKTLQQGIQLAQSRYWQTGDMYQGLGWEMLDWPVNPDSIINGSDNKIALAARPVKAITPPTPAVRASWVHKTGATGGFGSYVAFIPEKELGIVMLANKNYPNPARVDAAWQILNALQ
Summary of the method: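 20 mM phosphate pH 7.0 + 0.01% (detergent screen) or 0.0001% Triton X-100; 5.3 nM AmpC reagent; cpd preinc 15 min RT; nitrocefin (800 uM stock) to start; A480 q20 s × 4 min; Activity was normalised to no-enzyme and no-compound control wells.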
Potency means the concentration at half of the fitted maximal effect; tags describe the fitted curve by direction and shape.

SMILES	Potency	activity change, negative = inhibition
CC(C)(C)c1ccc(S(=O)(=O)N2CCN(C3CCCC3)CC2)cc1	inconclusive [inhibitor, full curve, poor fit]	–
Cc1oc(-c2ccc(Cl)cc2)nc1CN1CCC(C(=O)NCCCN2CCCC2=O)CC1	inconclusive [inhibitor, full curve, poor fit]	–
Cc1cc(N=Nc2ccccc2)c(NCC(O)C(O)C(O)CO)cc1C (configuration not stated)	–	inactive: 7.6%
COc1ccc(NC(=O)COC(=O)/C=C/C(=O)OCC(=O)Nc2ccc(OC)c(Cl)c2)cc1Cl	inconclusive [inhibitor, partial curve]	–
O=C(NNC(=O)C1CCN(Cc2ccccc2)CC1)c1cccc(Cl)c1	–	inactive: 1.88%
O=C(N/N=C\c1cc2c(cc1[N+](=O)[O-])OCO2)c1cccs1	inconclusive [inhibitor, full curve, poor fit]	–
O=C(O)c1cccnc1Sc1ccc(Br)cc1	inconclusive [inhibitor, single point]	–
Cc1ccc(S(=O)(=O)N2CCC(C(=O)NCC(C)(C)N3CCOCC3)CC2)c(C)c1	–	inactive: 4.13%
CCOC(=O)Cn1ncn(-c2ccc(OC(F)(F)F)cc2)c1=O	–	inactive: 5.6%
Cn1cc(C(=O)N/N=C/c2ccc3c(c2)OCO3)c2ccccc21	–	inactive: 3.36%
COc1ccccc1N1CCN(/N=C/C=C\c2ccco2)CC1	–	inactive: 5.06%
CCOC(=O)c1ccc(NC(=O)CSc2nnc(C)n2-c2ccccc2)cc1	inconclusive [inhibitor, partial curve, poor fit]	–
CCCCCOC(=O)Cc1c(O)c2ccccc2[nH]c1=O	inconclusive [inhibitor, full curve, poor fit]	–
COc1ccc(-c2nc3scc(CCNC(=O)c4cccc(Br)c4)n3n2)cc1	–	inactive: -5.56%
COc1ccccc1CNC(=O)CNCC1CCCO1 (configuration not stated)	inconclusive [inhibitor, full curve, poor fit]	–
CCCN(CCC)Cc1c(C(=O)N/N=C/c2ccsc2)nnn1-c1nonc1N	inconclusive [inhibitor, full curve, poor fit]	–
COc1cc(CCC(=O)Nc2cccc(S(=O)(=O)N(C)C)c2)cc(OC)c1OC	inconclusive [inhibitor, partial curve]	–
Cc1ccc(S(=O)(=O)NCC(=O)N2CCN(S(=O)(=O)c3ccc(Cl)cc3)CC2)cc1C	inconclusive [inhibitor, full curve, poor fit]	–
COCC(=O)Nc1cccc(-c2nc3cccnc3s2)c1	–	inactive: 5.76%
COc1ccc(Cl)cc1NC(=O)C(C)N(C)Cc1cccc(Cl)c1Cl (configuration not stated)	inconclusive [inhibitor, partial curve, poor fit]	–
O=C(NCC1CCCO1)C1CCC(=O)N1CCc1ccccc1 (configuration not stated)	inconclusive [inhibitor, full curve]	–

SMILES	Potency	activity change, negative = inhibition
COc1cc(N)c(C(=O)c2nccc3cc(OC)c(OC)cc23)cc1OC	inconclusive [inhibitor, partial curve, poor fit]	–
Cc1cc(NCc2ccco2)n2c(nc3ccccc32)c1C#N	inconclusive [inhibitor, full curve, poor fit]	–
COCCCNC(=O)C(C#N)c1nc2ccccc2nc1N1CCCC1 (configuration not stated)	–	inactive: -18.4%
O=c1/c(=C/c2ccc(CNS(=O)(=O)c3ccccc3)o2)sc2n1CCN=2	inconclusive [inhibitor, full curve, poor fit]	–
Cc1ccc(-n2c(C)cc(C)c(C#N)c2=O)cc1Cl	inconclusive [inhibitor, full curve]	–
Cc1cc([N+](=O)[O-])ccc1NCc1ccc2ccccc2c1	inconclusive [inhibitor, full curve]	–
COc1cc(NC(=O)c2ccccc2Cl)ccc1NC(=O)c1ccco1	–	inactive: 0.55%
COc1ccc(/C=C2/CC/C(=C\c3ccc(OC)c(OC)c3OC)C2=O)c(OC)c1OC	inconclusive [inhibitor, partial curve, poor fit]	–
O=S(=O)(Cc1ccccc1)NCCc1ccc(F)cc1	inconclusive [inhibitor, full curve, poor fit]	–
O=C(COc1ccc2c3c(c(=O)oc2c1)CCC3)N[C@@H](Cc1ccccc1)C(=O)O	inconclusive [inhibitor, full curve]	–
O=C(Nc1ccc(Oc2cccc(C(F)(F)F)c2)nc1)c1ccco1	–	inactive: -9.31%
Cc1ccc(N2CC(C(=O)Nc3ncc([N+](=O)[O-])s3)CC2=O)cc1 (configuration not stated)	inconclusive [inhibitor, full curve]	–
CCOc1ccc(OCCCC(=O)N(CC)CC(=O)Nc2c(F)cccc2F)cc1	inconclusive [inhibitor, full curve, poor fit]	–
Cc1c(C(=O)N2CCC(C)CC2)c(S(=O)(=O)Nc2cccc(C(F)(F)F)c2)c(C)n1C	inconclusive [inhibitor, single point]	–
COc1cccc2sc(NNC(=O)c3nc4ccccc4s3)nc12	inconclusive [inhibitor, partial curve, poor fit]	–
N#Cc1cccc(CN2CCC(=O)N([C@H](CO)c3ccccc3)CC2)c1	inconclusive [inhibitor, full curve, poor fit]	–
O=C(Nc1ccc(Cl)cn1)c1cc2ccccc2o1	inconclusive [inhibitor, partial curve]	–
COc1ccccc1-n1c(SCC(=O)N(C)C2CCS(=O)(=O)C2)nc2ccccc2c1=O (configuration not stated)	inconclusive [inhibitor, full curve, poor fit]	–
CC1(C)CC(=O)c2sc(NC(=O)CN3C(=O)CCC3=O)nc2C1	inconclusive [inhibitor, partial curve, poor fit]	–
CC1=C(C(=O)OC2CCCCC2)C(c2ccco2)C2=C(CC(C)(C)CC2=O)N1 (configuration not stated)	inconclusive [inhibitor, single point]	–
S=c1[nH]nc(-c2ccco2)n1-c1cccc2ccccc12	inconclusive [inhibitor, partial curve, poor fit]	–
